In the supplement of paper PMC8728848:
Some of the results follow.

How the values were obtained:
Test in all cases: glycan array binding signal (z-score within array); higher = stronger binding
Settings in all cases: glycan notation: IUPAC condensed, linker removed
Fuc(a1-2)Gal = molecular target: Fuc(a1-2)Gal
Outline: (§1)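 The Consortium for Functional Glycomics database supplied 3228 glycan arrays, of which those lacking an available protein sequence were dropped. The binding signal, a within-array Z-score, was averaged across arrays of the same protein sequence and across linkers. Negative scores can be read as non-binding.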

Fuc(a1-2)Gal(b1-3)GalNAc = molecular target: Fuc(a1-2)Gal(b1-3)GalNAc
Outline: as §1

[1] = molecular target: Fuc(a1-2)Gal(b1-3)GalNAc(a1-3)[Fuc(a1-2)]Gal(b1-4)Glc
Outline: as §1

[2] = molecular target: Fuc(a1-2)Gal(b1-3)GalNAc(a1-3)[Fuc(a1-2)]Gal(b1-4)GlcNAc
Outline: as §1

[3] = molecular target: Fuc(a1-2)Gal(b1-3)GalNAc(b1-3)Gal
Outline: as §1

[4] = molecular target: Fuc(a1-2)Gal(b1-3)GalNAc(b1-3)Gal(a1-4)Gal(b1-4)Glc
Outline: as §1

[5] = molecular target: Fuc(a1-2)Gal(b1-3)GalNAc(b1-4)[Neu5Ac(a2-3)]Gal(b1-4)Glc
Outline: as §1

Fuc(a1-2)Gal(b1-3)GlcNAc = molecular target: Fuc(a1-2)Gal(b1-3)GlcNAc
Outline: as §1

[6] = molecular target: Fuc(a1-2)Gal(b1-3)GlcNAc(b1-2)Man(a1-3)[Fuc(a1-2)Gal(b1-3)GlcNAc(b1-2)Man(a1-6)]Man(b1-4)GlcNAc(b1-4)GlcNAc
Outline: as §1

[7] = molecular target: Fuc(a1-2)Gal(b1-3)GlcNAc(b1-2)Man(a1-3)[Fuc(a1-2)Gal(b1-3)GlcNAc(b1-2)Man(a1-6)]Man(b1-4)GlcNAc(b1-4)[Fuc(a1-6)]GlcNAc
Outline: as §1

[8] = molecular target: Fuc(a1-2)Gal(b1-3)GlcNAc(b1-3)Gal(b1-4)Glc
Outline: as §1

[9] = molecular target: Fuc(a1-2)Gal(b1-3)GlcNAc(b1-3)GalNAc
Outline: as §1

[10] = molecular target: Fuc(a1-2)Gal(b1-3)GlcNAc(b1-3)[Fuc(a1-2)Gal(b1-3)GlcNAc(b1-6)]GalNAc
Outline: as §1

[11] = molecular target: Fuc(a1-2)Gal(b1-3)GlcNAc(b1-3)[Gal(b1-4)GlcNAc(b1-6)]Gal(b1-4)Glc
Outline: as §1

[12] = molecular target: Fuc(a1-2)Gal(b1-3)GlcNAc(b1-3)[Neu5Ac(a2-6)Gal(b1-4)GlcNAc(b1-6)]Gal(b1-4)Glc
Outline: as §1

[13] = molecular target: Fuc(a1-2)Gal(b1-3)GlcNAc6S
Outline: as §1

[14] = molecular target: Fuc(a1-2)Gal(b1-3)[Fuc(a1-4)]GlcNAc
Outline: as §1

[15] = molecular target: Fuc(a1-2)Gal(b1-3)[Fuc(a1-4)]GlcNAc(b1-2)Man(a1-3)[Fuc(a1-2)Gal(b1-3)[Fuc(a1-4)]GlcNAc(b1-2)Man(a1-3)]Man(b1-4)GlcNAc(b1-4)GlcNAc
Outline: as §1

[16] = molecular target: Fuc(a1-2)Gal(b1-3)[Fuc(a1-4)]GlcNAc(b1-2)Man(a1-3)[Fuc(a1-2)Gal(b1-3)[Fuc(a1-4)]GlcNAc(b1-2)Man(a1-6)]Man(b1-4)GlcNAc(b1-4)[Fuc(a1-6)]GlcNAc(b1-4)[Fuc(a1-6)]GlcNAc
Outline: as §1

[17] = molecular target: Fuc(a1-2)Gal(b1-3)[Fuc(a1-4)]GlcNAc(b1-3)[Fuc(a1-3)[Gal(b1-4)]GlcNAc(b1-6)]Gal(b1-4)Glc
Outline: as §1

[18] = molecular target: Fuc(a1-2)Gal(b1-3)[Fuc(a1-4)]GlcNAc(b1-3)[Gal(b1-4)GlcNAc(b1-6)]Gal(b1-4)Glc
Outline: as §1

[19] = molecular target: Fuc(a1-2)Gal(b1-4)Fuc(a1-3)]GlcNAc(b1-2)Man(a1-3)[Fuc(a1-2)Gal(b1-4)[Fuc(a1-3)]GlcNAc(b1-2)Man(a1-6)]Man(b1-4)GlcNAc(b1-4)GlcNAc
Outline: as §1

Fuc(a1-2)Gal(b1-4)Glc = molecular target: Fuc(a1-2)Gal(b1-4)Glc
Outline: as §1

Fuc(a1-2)Gal(b1-4)Glc6S = molecular target: Fuc(a1-2)Gal(b1-4)Glc6S
Outline: as §1

Fuc(a1-2)Gal(b1-4)GlcNAc = molecular target: Fuc(a1-2)Gal(b1-4)GlcNAc
Outline: as §1

[20] = molecular target: Fuc(a1-2)Gal(b1-4)GlcNAc(b1-2)Man
Outline: as §1

[21] = molecular target: Fuc(a1-2)Gal(b1-4)GlcNAc(b1-2)Man(a1-3)[Fuc(a1-2)Gal(b1-4)GlcNAc(b1-2)Man(a1-6)]Man(b1-4)GlcNAc(b1-4)GlcNAc
Outline: as §1

[22] = molecular target: Fuc(a1-2)Gal(b1-4)GlcNAc(b1-2)Man(a1-3)[Fuc(a1-2)Gal(b1-4)GlcNAc(b1-2)Man(a1-6)]Man(b1-4)GlcNAc(b1-4)[Fuc(a1-6)]GlcNAc
Outline: as §1

[23] = molecular target: Fuc(a1-2)Gal(b1-4)GlcNAc(b1-2)[Fuc(a1-2)Gal(b1-4)GlcNAc(b1-4)]Man(a1-3)[Fuc(a1-2)Gal(b1-4)GlcNAc(b1-2)Man(a1-6)]Man(b1-4)GlcNAc(b1-4)GlcNAc
Outline: as §1

[24] = molecular target: Fuc(a1-2)Gal(b1-4)GlcNAc(b1-3)Gal(b1-4)GlcNAc
Outline: as §1

[25] = molecular target: Fuc(a1-2)Gal(b1-4)GlcNAc(b1-3)Gal(b1-4)GlcNAc(b1-2)Man(a1-3)[Fuc(a1-2)Gal(b1-4)GlcNAc(b1-3)Gal(b1-4)GlcNAc(b1-2)Man(a1-6)]Man(b1-4)GlcNAc(b1-4)GlcNAc
Outline: as §1

[26] = molecular target: Fuc(a1-2)Gal(b1-4)GlcNAc(b1-3)Gal(b1-4)GlcNAc(b1-3)Gal(b1-4)GlcNAc
Outline: as §1

[27] = molecular target: Fuc(a1-2)Gal(b1-4)GlcNAc(b1-3)GalNAc
Outline: as §1

[28] = molecular target: Fuc(a1-2)Gal(b1-4)GlcNAc(b1-3)[Fuc(a1-2)Gal(b1-4)GlcNAc(b1-6)]GalNAc
Outline: as §1

[29] = molecular target: Fuc(a1-2)Gal(b1-4)GlcNAc(b1-3)[Fuc(a1-3)[Gal(b1-4)]GlcNAc(b1-6)]Gal(b1-4)Glc
Outline: as §1

[30] = molecular target: Fuc(a1-2)Gal(b1-4)GlcNAc(b1-6)GalNAc
Outline: as §1

[31] = molecular target: Fuc(a1-2)Gal(b1-4)GlcNAc6S
Outline: as §1

[32] = molecular target: Fuc(a1-2)Gal(b1-4)[Fuc(a1-3)]GlcNAc
Outline: as §1

[33] = molecular target: Fuc(a1-2)Gal(b1-4)[Fuc(a1-3)]GlcNAc(b1-2)Man(a1-3)[Fuc(a1-2)Gal(b1-4)[Fuc(a1-3)]GlcNAc(b1-2)Man(a1-6)]Man(b1-4)GlcNAc(b1-4)[Fuc(a1-6)]GlcNAc
Outline: as §1

[34] = molecular target: Fuc(a1-2)Gal(b1-4)[Fuc(a1-3)]GlcNAc(b1-2)[Fuc(a1-2)Gal(b1-4)[Fuc(a1-3)]GlcNAc(b1-4)]Man(a1-3)[Fuc(a1-2)Gal(b1-4)[Fuc(a1-3)]GlcNAc(b1-2)Man(a1-6)]Man(b1-4)GlcNAc(b1-4)GlcNAc
Outline: as §1

[35] = molecular target: Fuc(a1-2)Gal(b1-4)[Fuc(a1-3)]GlcNAc(b1-3)Gal(b1-4)[Fuc(a1-3)]GlcNAc
Outline: as §1

[36] = molecular target: Fuc(a1-2)Gal(b1-4)[Fuc(a1-3)]GlcNAc(b1-3)Gal(b1-4)[Fuc(a1-3)]GlcNAc(b1-3)Gal(b1-4)[Fuc(a1-3)]GlcNAc
Outline: as §1

[37] = molecular target: Fuc(a1-2)Gal(b1-4)[Fuc(a1-3)]GlcNAc(b1-3)GalNAc
Outline: as §1

[38] = molecular target: Fuc(a1-2)Gal(b1-4)[Fuc(a1-3)]GlcNAc(b1-3)[Neu5Ac(a2-6)Gal(b1-4)GlcNAc(b1-6)]Gal(b1-4)Glc
Outline: as §1

[39] = molecular target: Fuc(a1-2)Gal3S(b1-4)GlcNAc
Outline: as §1

B1: SSP1 (Sclerotinia sclerotiorum), XP_001584968 (protein)
chain: MGSSHHHHHHSSGLVPRGSHMSLLTTELACTSAPDQVLHLFFQDGQNILEARSPDGGNVWTTQDTIIAKDGDYNGSSMTCYYVDKDANFDNQPSIHLLYMNKDKQLTEKVKRMKGDNPIWEDAKVPDEVRKGPEQYSKLTSGSFNQGTGWNPNGSQWAYFSASKDGKMGIVEIRRTPKDPWHTETILEEKWGDELPGTALACVIGNGKIRVFLQHHDYSIILYENQNNTWHDRGTFIPKDKVQATTPLACTMTKDGSVHLFYVSKSNKIIHCTDGKKEEELINFFPGSKLGATSVENKITLFFRNLNPVNEVGTLENENGSWKHGTTVIPA
glycan array binding signal (z-score) (Fuc(a1-2)Gal): -0.634
glycan array binding signal (z-score) (Fuc(a1-2)Gal(b1-3)GalNAc): 0
glycan array binding signal (z-score) [1]: -0.231
glycan array binding signal (z-score) [2]: -0.034
glycan array binding signal (z-score) [3]: 1.22
glycan array binding signal (z-score) [4]: -0.063
glycan array binding signal (z-score) [5]: -0.22
glycan array binding signal (z-score) (Fuc(a1-2)Gal(b1-3)GlcNAc): -0.026
glycan array binding signal (z-score) [6]: 1.11
glycan array binding signal (z-score) [7]: -0.147
glycan array binding signal (z-score) [8]: -0.126
glycan array binding signal (z-score) [9]: -0.072
glycan array binding signal (z-score) [10]: 0.083
glycan array binding signal (z-score) [11]: -0.099
glycan array binding signal (z-score) [12]: 0.347
glycan array binding signal (z-score) [13]: 0.646
glycan array binding signal (z-score) [14]: -0.279
glycan array binding signal (z-score) [15]: 0.937
glycan array binding signal (z-score) [16]: -0.423
glycan array binding signal (z-score) [17]: -0.184
glycan array binding signal (z-score) [18]: -0.405
glycan array binding signal (z-score) [19]: 0.411
glycan array binding signal (z-score) (Fuc(a1-2)Gal(b1-4)Glc): 0.672
glycan array binding signal (z-score) (Fuc(a1-2)Gal(b1-4)Glc6S): -0.344
glycan array binding signal (z-score) (Fuc(a1-2)Gal(b1-4)GlcNAc): -0.221
glycan array binding signal (z-score) [20]: -0.573
glycan array binding signal (z-score) [21]: -0.04
glycan array binding signal (z-score) [22]: 0.31
glycan array binding signal (z-score) [23]: 0.056
glycan array binding signal (z-score) [24]: -0.903
glycan array binding signal (z-score) [25]: 0.094
glycan array binding signal (z-score) [26]: 0.283
glycan array binding signal (z-score) [27]: -0.123
glycan array binding signal (z-score) [28]: -0.366
glycan array binding signal (z-score) [29]: -0.146
glycan array binding signal (z-score) [30]: 0.061
glycan array binding signal (z-score) [31]: -0.116
glycan array binding signal (z-score) [32]: -0.385
glycan array binding signal (z-score) [33]: -0.054
glycan array binding signal (z-score) [34]: 0.008
glycan array binding signal (z-score) [35]: -0.305
glycan array binding signal (z-score) [36]: 0.321
glycan array binding signal (z-score) [37]: -0.39
glycan array binding signal (z-score) [38]: -0.218
glycan array binding signal (z-score) [39]: -0.468
